The target in this assay is T1, human PD-L1, full-length, expressed on transfected cells (human, UniProt Q9NZQ7).
T1 construct: whole, on cells; also called CD274; B7-H1
Kind of assay: flow cytometry, transfected cells. For orientation: In flow cytometry, cells or beads pass a laser one at a time.

Here are results for one molecule from US20230235012A1 (ALPINE IMMUNE SCIENCES, published 2023).

T1 sequence (Q9NZQ7 19-290): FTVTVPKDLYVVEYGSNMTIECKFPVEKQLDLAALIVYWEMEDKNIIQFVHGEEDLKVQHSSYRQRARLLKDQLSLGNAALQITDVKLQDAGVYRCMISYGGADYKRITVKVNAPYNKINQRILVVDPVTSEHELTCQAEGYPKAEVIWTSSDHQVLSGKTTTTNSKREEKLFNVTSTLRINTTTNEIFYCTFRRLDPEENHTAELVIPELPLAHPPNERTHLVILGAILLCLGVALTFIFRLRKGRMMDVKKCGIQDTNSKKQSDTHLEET

B1: stacked Fc fusion: Domain 1 ICOSL WT / Domain 2 CD80 WT / Fc (Fc fusion)
chain: DTQEKEVRAMVGSDVELSCACPEGSRFDLNDVYVYWQTSESKTVVTYHIPQNSSLENVDSRYRNRALMSPAGMLRGDFSLRLFNVTPQDEQKFHCLVLSQSLGFQEVLSVEVTLHVAANFSVGGGGSGGGGSGGGGSVIHVTKEVKEVATLSCGHNVSVEELAQTRIYWQKEKKMVLTMMSGDMNIWPEYKNRTIFDITNNLSIVILALRPSDEGTYECVVLKYEKDAFKREHLAEVTLSVKADFPTPSISDFEIPGGGGSGGGGSAAA[human IgG1 Fc with C220S R292C N297G V302C (EU numbers) not spelt out]
B1 displayed an MFI of 2970 MFI.
